{
  "source": "PubChem BioAssay AID504332",
  "about": "(National Center for Advancing Translational Sciences (NCATS), 2011)",
  "note": "Among all 350,000 compounds or so, about 31,000 (8.9%) were called active. The inconclusive results got no clear call from the source; some entries with a clear call stand among them for comparison. Calls come from the whole dose curve; as a rule, active = well fitted inhibition curve with a large enough effect; inconclusive = small, poorly fitted or top-dose-only effect; inactive = no such curve, though single readings can be large or run the other way. Where the call is inconclusive, the potency comes from a doubtful curve fit. % is set by controls: 0 for no effect and ±100 for the full control effect; potency is the fitted concentration of half-maximal effect; tags give direction and shape of the fitted curve.",
  "data": [
    {"target": "Histone-lysine N-methyltransferase EHMT2 (Homo sapiens) (UniProt Q96KQ7)", "sequence (Q96KQ7 whole entry, looked up)": "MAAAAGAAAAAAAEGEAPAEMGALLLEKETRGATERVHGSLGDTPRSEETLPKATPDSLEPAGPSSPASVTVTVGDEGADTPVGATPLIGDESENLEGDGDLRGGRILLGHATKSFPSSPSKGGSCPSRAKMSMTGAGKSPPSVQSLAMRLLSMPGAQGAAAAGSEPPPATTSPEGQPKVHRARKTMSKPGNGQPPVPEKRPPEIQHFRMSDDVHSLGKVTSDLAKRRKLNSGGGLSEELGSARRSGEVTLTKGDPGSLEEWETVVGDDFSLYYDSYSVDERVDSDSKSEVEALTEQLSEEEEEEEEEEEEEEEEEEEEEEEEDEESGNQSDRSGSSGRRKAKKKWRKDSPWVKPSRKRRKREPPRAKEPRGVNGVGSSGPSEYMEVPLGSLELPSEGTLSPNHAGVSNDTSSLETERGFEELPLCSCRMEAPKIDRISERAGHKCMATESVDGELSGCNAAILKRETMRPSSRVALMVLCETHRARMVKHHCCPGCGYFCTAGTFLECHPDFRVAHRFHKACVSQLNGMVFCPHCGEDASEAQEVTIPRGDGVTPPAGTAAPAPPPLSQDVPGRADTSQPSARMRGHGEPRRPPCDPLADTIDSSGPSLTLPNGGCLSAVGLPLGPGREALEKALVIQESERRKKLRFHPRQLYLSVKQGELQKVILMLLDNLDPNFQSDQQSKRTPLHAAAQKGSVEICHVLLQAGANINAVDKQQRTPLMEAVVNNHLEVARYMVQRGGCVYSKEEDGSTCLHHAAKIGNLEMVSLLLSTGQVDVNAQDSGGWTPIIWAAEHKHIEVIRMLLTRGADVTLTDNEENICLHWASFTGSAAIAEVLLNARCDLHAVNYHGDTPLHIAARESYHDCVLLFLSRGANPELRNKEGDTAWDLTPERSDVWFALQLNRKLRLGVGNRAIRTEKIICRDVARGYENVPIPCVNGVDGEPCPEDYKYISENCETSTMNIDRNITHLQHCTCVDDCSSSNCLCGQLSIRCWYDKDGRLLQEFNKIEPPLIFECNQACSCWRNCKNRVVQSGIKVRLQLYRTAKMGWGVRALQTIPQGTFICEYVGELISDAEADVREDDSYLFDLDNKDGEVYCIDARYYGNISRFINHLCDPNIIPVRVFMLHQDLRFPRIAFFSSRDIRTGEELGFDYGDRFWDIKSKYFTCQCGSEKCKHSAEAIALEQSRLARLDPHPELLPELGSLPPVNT", "assay": "qHTS Assay for Inhibitors of Histone Lysine Methyltransferase G9a; note: nearly all actives have a fitted effect of over 75% in size", "settings": "G9a H3K9 monomethylation, AlphaScreen, 2 h; activity, negative = inhibition: at 59 µM (top of the series) unless noted", "method_in_brief": "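AlphaScreen detection with an anti-monomethyl H3K9 antibody quantified product after a 2 h room-temperature reaction containing 500 nM biotinylated H3K9 peptide, 20 µM SAM and 20 nM enzyme, which had been preincubated 15 min with compound.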", "values": [
      {"smiles": "CC1CCN(C(=O)CSc2nc3ccccc3s2)CC1", "Potency": "inconclusive: 4.47 µM [inhibitor, full curve, poor fit]"},
      {"smiles": "COc1ccc(NS(=O)(=O)c2cc3c4c(c2)CCN4C(=O)CC3)c(OC)c1", "activity, negative = inhibition": "inactive: -8.93% [at 102 µM]"},
      {"smiles": "C=CCNc1nc(-c2ccc(OC)cc2OC)cs1", "Potency": "inconclusive: 28.2 µM [inhibitor, single point]"},
      {"smiles": "Cc1sc(-c2ccccn2)nc1OC(=O)c1cccc(Cl)c1Cl", "activity, negative = inhibition": "inconclusive: -102% [inhibitor]"},
      {"smiles": "CCn1c(N)c(C(=O)NCc2ccc3c(c2)OCO3)sc1=S", "Potency": "inconclusive: 2.82 µM [inhibitor, partial curve, poor fit]"},
      {"smiles": "CC(=O)c1ccc(NC(=O)c2noc3c2CCCCC3)cc1", "Potency": "active: 56.2 µM"},
      {"smiles": "CCCn1cc(S(=O)(=O)c2ccc(CC)cc2)c(=O)c2cc(F)c(N3CCN(C)CC3)cc21", "activity, negative = inhibition": "inactive: -5.44%"},
      {"smiles": "C#CCOCCOCCOCCNc1nc(N2CCN(C(=O)[C@H](CCCCN)n3cc([C@@H](N)CO)nn3)CC2)nc(N2CCN(C(=O)[C@H](Cc3cc4ccccc4[nH]3)n3cc([C@@H](N)CC(C)C)nn3)CC2)n1", "activity, negative = inhibition": "inactive: -22.9% [at 12.7 µM]"},
      {"smiles": "CCCCOCCCN1CC(=O)N2[C@@H](Cc3c([nH]c4ccccc34)C2(C)C)C1=O", "activity, negative = inhibition": "inactive: -7.76% [at 2.33 µM]"},
      {"smiles": "Cc1[nH]nc2c1C1(CCOCC1)C(C#N)=C(N)O2", "Potency": "inconclusive: 39.8 µM [inhibitor, single point]"},
      {"smiles": "CC(OC(=O)c1cccc(S(=O)(=O)N2CCCCC2)c1)C(=O)NCC1CCCCC1", "note": "(configuration not stated)", "Potency": "inconclusive: 89.1 µM [inhibitor, partial curve, poor fit]"},
      {"smiles": "CN1CCN(C(=S)NCCc2ccccc2)CC1", "Potency": "active: 6.31 µM"},
      {"smiles": "Cc1ccsc1C1NC(=O)c2c(sc3c2CCN(C)C3)N1", "note": "(configuration not stated)", "Potency": "active: 39.8 µM"},
      {"smiles": "CC(/C=C1\\SC(=S)N(NC(=O)c2ccc(C)cc2)C1=O)=C\\c1ccccc1", "Potency": "inconclusive: 70.8 µM [inhibitor, single point]"},
      {"smiles": "COc1ccc(NC(=O)c2c(NCc3cccs3)sc3c2CCCCC3)c(OC)c1", "Potency": "active: 8.91 µM"},
      {"smiles": "CCC(C)N(C(=O)COC(=O)Cc1n[nH]c(=O)c2ccccc12)C1CCS(=O)(=O)C1", "note": "(configuration not stated)", "Potency": "inconclusive: 89.1 µM [inhibitor, single point]"},
      {"smiles": "CCn1c2ccccc2c2nnc(SCC(=O)c3ccccc3)nc21", "Potency": "inconclusive: 11.2 µM [inhibitor, single point]"},
      {"smiles": "O=C1CCN(N=Nc2cccc(Cl)c2)N1", "Potency": "active: 0.794 µM"},
      {"smiles": "CCOc1ccc(OCC)c(Nc2nc3ccc(C(=O)c4ccccc4)cc3n3cnnc23)c1", "activity, negative = inhibition": "inactive: -25.5%"},
      {"smiles": "CN(C)c1ccc(NC(=O)Nc2ccc3snnc3c2)cc1", "Potency": "active: 1.26 µM"},
      {"smiles": "O=S(=O)(c1ccc(OC(F)(F)F)cc1)N1CCC(c2nc3ccccc3s2)CC1", "activity, negative = inhibition": "inactive: 5.05%"},
      {"smiles": "CCn1c(=O)c2sccc2n(CC(=O)NCCC2=CCCCC2)c1=O", "activity, negative = inhibition": "inactive: -13.7% [at 102 µM]"},
      {"smiles": "COc1ccc2c(c1)-c1nc(/N=C/c3ccc(O)cc3)sc1CC2", "Potency": "inconclusive: 25.1 µM [inhibitor, single point]"},
      {"smiles": "COc1ccc(C2=NN(CC(=O)NCCc3ccccc3)C(=O)CC2)cc1", "Potency": "inconclusive: 5.62 µM [inhibitor, partial curve, poor fit]"},
      {"smiles": "C/C(CC1CC(C)OC1=O)=N\\NC(N)=S", "note": "(configuration not stated)", "Potency": "active: 35.5 µM"},
      {"smiles": "Cn1c(=O)c2cc(C(=O)Nc3cccc(C#N)c3)sc2c2ccccc21", "activity, negative = inhibition": "inactive: 29.9%"},
      {"smiles": "Cc1cc(N2CCCCC2)ccc1[N+](=O)[O-]", "Potency": "inconclusive: 0.355 µM [inhibitor, partial curve, poor fit]"},
      {"smiles": "O=C(CN1C(=O)NC2(CCc3ccccc32)C1=O)Nc1cccc(F)c1", "note": "(configuration not stated)", "Potency": "inconclusive: 39.8 µM [inhibitor, single point]"},
      {"smiles": "O=C1OC2(CCCCC2)OC(=O)C1=CNc1nc2ccccc2s1", "Potency": "inconclusive: 89.1 µM [inhibitor, single point]"},
      {"smiles": "COc1ccc(N2CCN(C(=O)CSc3ccc([N+](=O)[O-])cc3)CC2)cc1", "Potency": "inconclusive: 39.8 µM [inhibitor, partial curve, poor fit]"},
      {"smiles": "CC(CN1CCCCCC1)C(=O)NN", "note": "(configuration not stated)", "Potency": "inconclusive: 50.1 µM [inhibitor, partial curve]"},
      {"smiles": "CCN(CC)c1ccc(/C=N/NS(=O)(=O)c2cccc([N+](=O)[O-])c2)cc1", "Potency": "active: 11.2 µM"},
      {"smiles": "O=C(OCC(=O)N1CCN(C(=O)c2ccco2)CC1)C1=COCCO1", "Potency": "inconclusive: 20 µM [inhibitor, single point]"},
      {"smiles": "O=C(Nc1nc2ccc(S(=O)(=O)N3CCCC3)cc2s1)c1cccs1", "Potency": "inconclusive: 89.1 µM [inhibitor, partial curve, poor fit]"},
      {"smiles": "CCC(=O)Nc1ccccc1-c1nc2ccccc2n(CC(=O)Nc2ccc(C)c(C)c2)c1=O", "Potency": "inconclusive: 31.6 µM [inhibitor, partial curve, poor fit]"},
      {"smiles": "COc1ccc(C2=Nc3nc(-c4ccccc4)cn3C(c3ccc(OC)cc3)C2)cc1", "note": "(configuration not stated)", "Potency": "active: 22.4 µM"},
      {"smiles": "COc1ccc2c(C)cc(N3CCN(Cc4ccccc4)CC3)nc2c1", "activity, negative = inhibition": "inactive: 14.3% [at 2.33 µM]"},
      {"smiles": "COC(=O)N1[C@H](C)C=C[C@]1(Cc1ccccc1)C(=O)O", "Potency": "inconclusive: 89.1 µM [inhibitor, single point]"},
      {"smiles": "CC(C)Cc1nnc(NC(=O)Cc2ccc([N+](=O)[O-])cc2)s1", "Potency": "inconclusive: 89.1 µM [inhibitor, single point]"},
      {"smiles": "CCOC(=O)c1cnn(-c2ccc(F)cc2)c1N", "activity, negative = inhibition": "inactive: 8.69% [at 12.7 µM]"},
      {"smiles": "O=C(NC1CCCC1)c1ccc(CSc2nc3cccnc3n2Cc2ccccc2)cc1", "Potency": "inconclusive: 39.8 µM [inhibitor, single point]"},
      {"smiles": "COc1ccc(Cl)cc1NC(=O)c1sc2nc(-c3ccc(OC)c(OC)c3)ccc2c1N", "Potency": "inconclusive: 3.55 µM [inhibitor, partial curve, poor fit]"},
      {"smiles": "COc1ccc(CCNC(=O)CSCc2nc(-c3cccc(C)c3)oc2C)cc1OC", "Potency": "inconclusive: 25.1 µM [inhibitor, partial curve, poor fit]"},
      {"smiles": "CN1CCN(c2ncc(CN3C(=O)c4ccccc4C3=O)s2)CC1", "Potency": "inconclusive: 89.1 µM [inhibitor, partial curve, poor fit]"},
      {"smiles": "O=C(Nc1ccc(F)c(Cl)c1)Nc1csc2ccccc12", "Potency": "inconclusive: 50.1 µM [inhibitor, partial curve]"},
      {"smiles": "CCCOc1ccc(/C=c2\\sc3nc(-c4ccco4)nn3c2=O)cc1OCC", "activity, negative = inhibition": "inconclusive: -97.8% [inhibitor] [at 12.7 µM]"},
      {"smiles": "CCOc1ccc2nc(SCC(=O)c3cccs3)sc2c1", "Potency": "inconclusive: 8.91 µM [inhibitor, partial curve, poor fit]"},
      {"smiles": "CCc1cccc(CC)c1NC(=O)CSc1nc2ccc(N3C(=O)C4C(C3=O)[C@H]3C=C[C@@H]4C3)cc2s1", "note": "(some centres not stated)", "Potency": "active: 1.41 µM"},
      {"smiles": "COc1ccc(-n2c(O)c(/C=N/NS(=O)(=O)c3ccc(C)cc3)c3ccccc3c2=O)cc1OC", "Potency": "active: 11.2 µM"},
      {"smiles": "O=S1(=O)N=C(Nc2ccc(N3CCOCC3)cc2)c2ccccc21", "Potency": "inconclusive: 39.8 µM [inhibitor, single point]"},
      {"smiles": "COc1ccccc1-c1nn(-c2ccccc2)cc1C(=O)N1CCc2ccccc2C1", "Potency": "inconclusive: 2.82 µM [inhibitor, full curve, poor fit]"},
      {"smiles": "COc1ccc(-c2nnn(CC(=O)N(CC(=O)NC3CCCC3)c3ccccc3F)n2)cc1OC", "Potency": "inconclusive: 7.94 µM [inhibitor, partial curve, poor fit]"},
      {"smiles": "CCCN(/C=N/c1sc2c(c1C#N)CCCCC2)CCC", "Potency": "inconclusive: 79.4 µM [inhibitor, single point]"},
      {"smiles": "CCOc1ccc(C(C(=O)NC2CCCCC2)N(C(=O)c2ccccn2)c2cccnc2)cc1", "note": "(configuration not stated)", "activity, negative = inhibition": "inactive: 2.85% [at 102 µM]"},
      {"smiles": "CNc1nc(NCc2ccccc2)nc(N)c1[N+](=O)[O-]", "activity, negative = inhibition": "inactive: 7.75% [at 102 µM]"},
      {"smiles": "COCCNC(=O)/C(C#N)=C/c1ccc(C(=O)O)cc1", "Potency": "inconclusive: 50.1 µM [inhibitor, partial curve, poor fit]"},
      {"smiles": "O=C(O)c1c(C(=O)N2N=C3/C(=C/c4ccccc4)CCCC3C2c2ccccc2)cccc1[N+](=O)[O-]", "note": "(configuration not stated)", "Potency": "active: 50.1 µM"},
      {"smiles": "Cn1c(N2CCCC2)nc2c1c(=O)n(Cc1ccc(F)cc1)c(=O)n2C", "Potency": "inconclusive: 89.1 µM [inhibitor, partial curve, poor fit]"},
      {"smiles": "Cc1c(C(=O)Nc2cccc(C#N)c2)sc2nc3n(c(=O)c12)CCCCC3", "Potency": "inconclusive: 15.8 µM [inhibitor, partial curve, poor fit]"},
      {"smiles": "Cn1c(CSCc2ccc(Cl)c(Cl)c2)n[nH]c1=S", "Potency": "inconclusive: 0.282 µM [inhibitor, full curve, poor fit]"},
      {"smiles": "Cn1c(=O)c2c(ncn2CC(=O)N2CCN(c3ccccc3F)CC2)n(C)c1=O", "activity, negative = inhibition": "inconclusive: -53.6% [inhibitor] [at 102 µM]"},
      {"smiles": "O=C1N/C(=N\\N=C\\c2cccs2)SC1Cc1ccc(Cl)cc1Cl", "note": "(configuration not stated)", "activity, negative = inhibition": "inactive: 53.4%"},
      {"smiles": "CC(C)(C)c1ccc(Cn2cnc(-c3ccc([N+](=O)[O-])cc3)c2)cc1", "Potency": "inconclusive: 20 µM [inhibitor, single point]"},
      {"smiles": "Cc1ccc(SCCc2cc[n+](CC(=O)c3ccccc3)cc2)cc1", "Potency": "inconclusive: 44.7 µM [inhibitor, partial curve]"},
      {"smiles": "O=C(Cc1ccccc1)NCCSCc1ccco1", "Potency": "inconclusive: 89.1 µM [inhibitor, single point]"},
      {"smiles": "COc1ccccc1CCC(=O)Oc1ccc(C#N)cc1OC", "Potency": "active: 25.1 µM"},
      {"smiles": "CC(NC(=O)c1ccco1)C(=O)OCC(=O)c1ccc(Cl)s1", "note": "(configuration not stated)", "Potency": "inconclusive: 50.1 µM [inhibitor, single point]"}
    ]}
  ]
}
